Legend:
[1] = target: T1, biot-hCD25-BioP-TVMV-His which had been His cleaved (hCD25) (human, UniProt P01589 22-240, biotinylated (biot-; BioP tag), captured on streptavidin); assay: SPR, observed equilibrium KD; hCD25 captured on streptavidin chip
T1 construct: Soluble human CD25 captured at low density (~300 RU) on an SA sensor chip; also called human sCD25; sCD25; not shown: BioP-TVMV tag remnant after cleavage of the His tag
T1 sequence (looked up): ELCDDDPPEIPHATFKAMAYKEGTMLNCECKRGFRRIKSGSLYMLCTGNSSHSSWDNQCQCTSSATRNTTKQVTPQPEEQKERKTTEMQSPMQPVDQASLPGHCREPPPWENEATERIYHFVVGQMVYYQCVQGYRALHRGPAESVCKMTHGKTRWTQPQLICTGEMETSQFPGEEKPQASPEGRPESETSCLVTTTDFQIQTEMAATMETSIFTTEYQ

[2] = target: T2, IL2R endogenously expressed on the T cell line, Kit225 (human, UniProt P01589 22-272; P14784 27-551; P31785 23-369); assay: cell-based or functional assay
T2 sequence (looked up) 1: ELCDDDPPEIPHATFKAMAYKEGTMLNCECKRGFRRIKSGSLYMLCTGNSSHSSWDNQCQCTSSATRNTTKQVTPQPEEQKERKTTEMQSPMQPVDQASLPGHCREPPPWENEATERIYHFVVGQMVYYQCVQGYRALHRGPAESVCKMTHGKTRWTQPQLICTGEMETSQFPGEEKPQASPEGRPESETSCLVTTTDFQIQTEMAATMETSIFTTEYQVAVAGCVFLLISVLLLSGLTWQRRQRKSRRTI
T2 sequence (looked up) 2: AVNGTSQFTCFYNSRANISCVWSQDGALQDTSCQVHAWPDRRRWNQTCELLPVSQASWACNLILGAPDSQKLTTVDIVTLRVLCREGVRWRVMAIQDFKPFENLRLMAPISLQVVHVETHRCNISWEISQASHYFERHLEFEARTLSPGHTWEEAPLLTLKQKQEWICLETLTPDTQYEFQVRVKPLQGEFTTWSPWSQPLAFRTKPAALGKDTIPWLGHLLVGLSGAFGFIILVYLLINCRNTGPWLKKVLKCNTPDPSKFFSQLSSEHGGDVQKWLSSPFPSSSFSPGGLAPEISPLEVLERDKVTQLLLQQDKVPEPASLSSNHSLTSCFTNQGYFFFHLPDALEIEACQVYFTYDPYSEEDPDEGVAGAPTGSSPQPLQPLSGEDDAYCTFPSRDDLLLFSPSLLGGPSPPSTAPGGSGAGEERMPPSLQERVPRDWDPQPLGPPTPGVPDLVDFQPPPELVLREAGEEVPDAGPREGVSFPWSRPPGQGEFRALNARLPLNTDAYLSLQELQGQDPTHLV
T2 sequence (looked up) 3: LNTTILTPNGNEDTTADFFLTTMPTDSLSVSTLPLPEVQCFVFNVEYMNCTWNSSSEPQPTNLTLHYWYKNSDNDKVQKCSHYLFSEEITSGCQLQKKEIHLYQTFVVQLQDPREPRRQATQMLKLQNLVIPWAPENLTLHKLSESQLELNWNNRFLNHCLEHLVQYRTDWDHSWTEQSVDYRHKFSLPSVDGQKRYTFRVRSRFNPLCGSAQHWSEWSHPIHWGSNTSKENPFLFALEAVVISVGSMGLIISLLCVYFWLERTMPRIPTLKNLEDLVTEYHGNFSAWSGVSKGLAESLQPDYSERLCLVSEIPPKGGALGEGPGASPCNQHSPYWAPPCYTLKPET

[3] = target: T3, IL2R on human primary cells (PBMCs or whole blood: Treg, CD4 foxp3- non-Treg, CD8 T cells, NK cells) (human, UniProt P01589 22-272; P14784 27-551; P31785 23-369); assay: cell-based or functional assay
T3 sequence (looked up) 1: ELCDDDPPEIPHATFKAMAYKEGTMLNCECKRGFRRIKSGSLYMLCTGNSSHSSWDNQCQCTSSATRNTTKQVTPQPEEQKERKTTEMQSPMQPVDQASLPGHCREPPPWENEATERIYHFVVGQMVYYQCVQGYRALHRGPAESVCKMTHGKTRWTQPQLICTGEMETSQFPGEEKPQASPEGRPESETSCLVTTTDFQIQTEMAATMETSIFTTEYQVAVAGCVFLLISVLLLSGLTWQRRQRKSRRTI
T3 sequence (looked up) 2: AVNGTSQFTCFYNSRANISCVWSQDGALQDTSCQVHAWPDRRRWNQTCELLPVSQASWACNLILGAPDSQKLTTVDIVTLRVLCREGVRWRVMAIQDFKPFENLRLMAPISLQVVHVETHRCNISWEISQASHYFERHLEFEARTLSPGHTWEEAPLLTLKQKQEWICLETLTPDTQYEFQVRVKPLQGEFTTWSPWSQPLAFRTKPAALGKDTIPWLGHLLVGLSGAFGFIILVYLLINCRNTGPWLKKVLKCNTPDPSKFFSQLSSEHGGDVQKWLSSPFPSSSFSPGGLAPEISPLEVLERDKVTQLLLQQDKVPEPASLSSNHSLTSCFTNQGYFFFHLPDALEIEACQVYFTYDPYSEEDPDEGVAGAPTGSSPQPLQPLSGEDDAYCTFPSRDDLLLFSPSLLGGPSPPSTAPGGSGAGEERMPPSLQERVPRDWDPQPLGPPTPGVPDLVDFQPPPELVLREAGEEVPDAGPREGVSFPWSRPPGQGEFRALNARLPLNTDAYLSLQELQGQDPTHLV
T3 sequence (looked up) 3: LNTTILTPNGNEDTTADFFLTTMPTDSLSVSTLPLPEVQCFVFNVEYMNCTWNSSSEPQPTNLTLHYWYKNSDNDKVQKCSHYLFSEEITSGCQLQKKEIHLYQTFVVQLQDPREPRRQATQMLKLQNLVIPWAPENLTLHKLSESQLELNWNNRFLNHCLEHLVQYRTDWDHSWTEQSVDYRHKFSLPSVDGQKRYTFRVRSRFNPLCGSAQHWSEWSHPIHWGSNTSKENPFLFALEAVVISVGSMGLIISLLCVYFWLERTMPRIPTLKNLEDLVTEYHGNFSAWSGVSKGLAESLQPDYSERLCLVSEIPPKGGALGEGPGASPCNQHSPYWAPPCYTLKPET

[4] = target: T4, hCD122(27-241)-hFc-D/hCD132(23-263)-hFc-K heterodimeric Fc fusion (hIL2-Rb/g) (human, UniProt P14784 27-241; P31785 23-263); assay: SPR, observed equilibrium KD; hIL2-Rb/g Fc heterodimer captured via Protein A on CM5 chip
T4 construct: range 27-241;range 23-263; Captured via Protein A immobilised on a CM5 chip; also called sIL2Rβ/IL2Rγ heterodimer; sIL2Rβ/IL2Rγ heteroreceptors; not shown: hFc-D: human Fc, one side of a heterodimeric pair; hFc-K: human Fc, other side of the heterodimeric pair
T4 sequence (looked up) 1: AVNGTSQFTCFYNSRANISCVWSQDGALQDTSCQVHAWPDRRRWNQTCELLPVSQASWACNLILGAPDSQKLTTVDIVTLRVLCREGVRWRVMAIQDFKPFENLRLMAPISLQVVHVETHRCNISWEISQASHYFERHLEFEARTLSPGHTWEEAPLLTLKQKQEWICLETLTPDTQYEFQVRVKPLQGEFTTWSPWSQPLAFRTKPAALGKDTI
T4 sequence (looked up) 2: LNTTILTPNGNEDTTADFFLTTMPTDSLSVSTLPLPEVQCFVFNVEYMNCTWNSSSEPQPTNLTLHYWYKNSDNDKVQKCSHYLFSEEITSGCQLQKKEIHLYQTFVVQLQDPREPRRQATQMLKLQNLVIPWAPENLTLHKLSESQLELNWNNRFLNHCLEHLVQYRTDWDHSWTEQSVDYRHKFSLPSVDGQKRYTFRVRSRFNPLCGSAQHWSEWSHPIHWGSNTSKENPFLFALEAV

[5] = target: T2, IL2R endogenously expressed on the T …; assay: cell-based or functional assay; remark: listed apart in the source

B1: Fc-(IL2(V91K)CD25)2 bivalent SEQ ID NO: 203 (Fc fusion)
chain: [sequence of about 350 residues with a human IgG1 Fc not given]GGGSGGGSGGGSELCDDDPPEIPHATFKAMAYKEGTMLNCECKRGFRRIKSGSLYMLCTGNSSHSSWDNQCQCTSSATRNTTKQVTPQPEEQKERKTTEMQSPMQPVDQASLPGHCREPPPWENEATERIYHFVVGQMVYYQCVQGYRALHRGPAESVCKMTHGKTRWTQPQLICTGEMETSQFPGEEKPQASPEGRPESETS
Kd [1]: 3000 nM

B2: IL2-CD25([…]) (other)
chain: [sequence of about 150 residues not given]GGGSGGGSGGGSELCDDDPPEIPHATFKAMAYKEGTMLNCECKRGFRRIKSGSLYMLCTGNSSHSSWDNQCQCTSSATRNTTKQVTPQPEEQKERKTTEMQSPMQPVDQASLPGHCREPPPWENEATERIYHFVVGQMVYYQCVQGYRALHRGPAESVCKMTHGKTRWTQPQLICTGE
notes: also called hIL2-CD25([…])
EC50 (ng/ml), IRF1-GAS-Luc reporter in Kit225 cells [2]: 49 ng/mL
EC50 for pSTAT5 induction in Treg, human PBMCs [3]: 4.6 ng/ml
Kd [4]: 54 nM
Kd [1]: 1600 nM

B3: IL2-T3A-CD25([…])-N89Q-T95A-T106A (SEQ ID NO: 202) (other)
chain: [sequence of about 150 residues not given]GGGSGGGSGGGSELCDDDPPEIPHATFKAMAYKEGTMLNCECKRGFRRIKSGSLYMLCTGNSSHSSWDNQCQCTSSATRQTTKQVAPQPEEQKERKATEMQSPMQPVDQASLPGHCREPPPWENEATERIYHFVVGQMVYYQCVQGYRALHRGPAESVCKMTHGKTRWTQPQLICTGE
notes: also called hIL2-CD25 (quad aglycosylated)
Potency EC50 ng/ml, Kit225 reporter cells [5]: 39.4 ng/mL
Ymax (%) % of wt IL2 response, Kit225 reporter cells [5]: 85%
Kd [1]: 1900 nM

B4: hIL2-CD25([…])-His (other)
chain: [sequence of about 150 residues not given]GGGSGGGSGGGSELCDDDPPEIPHATFKAMAYKEGTMLNCECKRGFRRIKSGSLYMLCTGNSSHSSWDNQCQCTSSATRNTTKQVTPQPEEQKERKTTEMQSPMQPVDQASLPGHCREPPPWENEATERIYHFVVGQMVYYQCVQGYRALHRGPAESVCKMTHGKTRWTQPQLICTGEMETSQFPGEEKPQASPEGRPESETSGGHHHHHH
EC50 (ng/ml), IRF1-GAS-Luc reporter in Kit225 cells [2]: 210 ng/mL

B5: IL2(C145V)-CD25([…]) (other)
chain: [sequence of about 150 residues with changes not given]GGGSGGGSGGGSELCDDDPPEIPHATFKAMAYKEGTMLNCECKRGFRRIKSGSLYMLCTGNSSHSSWDNQCQCTSSATRNTTKQVTPQPEEQKERKTTEMQSPMQPVDQASLPGHCREPPPWENEATERIYHFVVGQMVYYQCVQGYRALHRGPAESVCKMTHGKTRWTQPQLICTGEMETSQFPGEEKPQASPEGRPESETSCLVTTTDFQIQTEMAATMETSIFTTEYQ
notes: also called IL2-CV-CD25([…])
Kd [4]: 63 nM
Kd [1]: 2100 nM

B6: IL2([…])-(G3S)3-CD25([…]) (other)
chain: [sequence of about 150 residues not given]GGGSGGGSGGGSELCDDDPPEIPHATFKAMAYKEGTMLNCECKRGFRRIKSGSLYMLCTGNSSHSSWDNQCQCTSSATRNTTKQVTPQPEEQKERKTTEMQSPMQPVDQASLPGHCREPPPWENEATERIYHFVVGQMVYYQCVQGYRALHRGPAESVCKMTHGKTRWTQPQLICTGEMETSQFPGEEKPQASPEGRPESETSCLVTTTDFQIQTEMAATMETSIFTTEYQ
notes: also called IL2-CD25([…]); hIL2-CD25([…])
EC50 for pSTAT5 induction in Treg, human PBMCs [3]: 10 ng/ml
EC50 for pSTAT5 induction in Treg, human whole blood [3]: 22 ng/ml
Kd [4]: 44 nM
Kd [1]: 2400 nM

B7: IL2-CD25([…])-Fc1.1 SEQ ID NO: 68 (Fc fusion)
chain: [sequence of about 150 residues not given]GGGSGGGSGGGSELCDDDPPEIPHATFKAMAYKEGTMLNCECKRGFRRIKSGSLYMLCTGNSSHSSWDNQCQCTSSATRNTTKQVTPQPEEQKERKTTEMQSPMQPVDQASLPGHCREPPPWENEATERIYHFVVGQMVYYQCVQGYRALHRGPAESVCKMTHGKTRWTQPQLICTGEMETSQFPGEEKPQASPEGRPESETSDKTHTCPPCPAPEAEGAPSVFLFPPKPKDTLMISRTPEVTCVVVDVSHEDPEVKFNWYVDGVEVHNAKTKPREEQYNSTYRVVSVLTVLHQDWLNGKEYKCKVSNKALPSSIEKTISKAKGQPREPQVYTLPPSREEMTKNQVSLTCLVKGFYPSDIAVEWESNGQPENNYKTTPPVLDSDGSFFLYSKLTVDKSRWQQGNVFSCSVMHEALHNHYTQKSLSLSPG
notes: also called hIL2-CD25([…])-Fc1.1 (bivalent)
EC50 (ng/ml), IRF1-GAS-Luc reporter in Kit225 cells [2]: 3410 ng/mL
Kd [4]: 100 nM
Kd [1]: 2500 nM

B8: IL2(D40T)-CD25 SEQ ID NO: 70 (other)
chain: [sequence of about 150 residues with changes not given]GGGSGGGSGGGSELCDDDPPEIPHATFKAMAYKEGTMLNCECKRGFRRIKSGSLYMLCTGNSSHSSWDNQCQCTSSATRNTTKQVTPQPEEQKERKTTEMQSPMQPVDQASLPGHCREPPPWENEATERIYHFVVGQMVYYQCVQGYRALHRGPAESVCKMTHGKTRWTQPQLICTGEMETSQFPGEEKPQASPEGRPESETS
Kd [1]: 2800 nM

B9: IL2(V111K)-CD25 SEQ ID NO: 69 (other)
chain: [sequence of about 150 residues with changes not given]GGGSGGGSGGGSELCDDDPPEIPHATFKAMAYKEGTMLNCECKRGFRRIKSGSLYMLCTGNSSHSSWDNQCQCTSSATRNTTKQVTPQPEEQKERKTTEMQSPMQPVDQASLPGHCREPPPWENEATERIYHFVVGQMVYYQCVQGYRALHRGPAESVCKMTHGKTRWTQPQLICTGEMETSQFPGEEKPQASPEGRPESETS
Kd [1]: 1900 nM

B10: hIL2-CD25([…])-His (other)
chain: [sequence of about 150 residues not given]GGGSGGGSGGGSELCDDDPPEIPHATFKAMAYKEGTMLNCECKRGFRRIKSGSLYMLCTGNSSHSSWDNQCQCTSSATRNTTKQVTPQPEEQKERKTTEMQSPMQPVDQASLPGHCREPPPWENEATERIYHFVVGQMVYYQCVQGYRALHRGPAESVCKMTHGKTRWTQPQLICTGEGGHHHHHH
EC50 (ng/ml), IRF1-GAS-Luc reporter in Kit225 cells [2]: 145 ng/mL

— US20250179140A1 (Bristol-Myers Squibb, published 2025)
